In the RNAGym collection of RNA variant scans (doi:10.7554/elife.90254):
Read counts are not given, so values of variants with three or more changes are uncertain.

B1: LINE1-mini (parent)
chain: GGCAGAGCUCAACACAGCGUGGCAAAGUGGCUGUGGCUAGACUGCC

Variants of: B1
Test: self-cleavage, relative activity (ratio to wild type); higher = more cleavage; in vitro, sequencing; the parent is a self-cleaving ribozyme

Variant | self-cleavage
G29U A39U C46G | 0.04
G29C G33U A41U | 0.14
G30C C42G U43C | 0.02
G30A U32A U43C | 0.06
G29C U34G A39G | 0.03
G30A A39G C45U | 0.03
G29U U34C G40C | 0.02
G30A G40A C42A | 0.12
G29C G36C C42G C46U | 0.12
G30C U32G G33C | 0.04
G30U A41C C45U | 0.02
G30C A41U U43A | 0.04
G30U U32A A41G C45A | 0.06
G30C G36C C42G | 0.02
C31A C37A U38C G44U | 0.05
G30C A39G G40C | 0.22
G30A C37A A41C | 0.02
G29U C42A U43A | 0.01
G30A G35C U38G A39U U43A | 0.04
G29U G30U A39C C42A C45G | 0.07
G30U C31U U38C | 0.06
G30U G36U A39G G40C | 0.03
G30U G33U G44U | 0.05
G30U G33U G36A C42A | 0.04

Variant | self-cleavage
G30U G33C C37G C45U | 0.02
G29C G36U C45U | 0.06
G29U C31A G40U | 0.03
G29C G36A A41G | 0.1
G29U G35A A39G | 0.44
G29C C37U C42A | 0.02
G29U G30C A41U | 1.08
G29C U32C G44C C45U | 0.11
G30A C37A G40C | 0.26
G30A U38G C42G | 0
G30U C37U C46A | 0.05
G30A U34A G35A U38A | 0
G30U C31G U38A | 0.01
G30C G33A A41U | 0.17
G29U G30U G35C C45A | 0
G30C U43C G44U | 0.02
G30U U32A U38C | 0.05
G30U U32C C46G | 0.06
C31A A41C G44A | 0.03
C31A C37A C46U | 0.02
G30U C31A C37U G40A | 0.08
G30C C42A G44C C46U | 0.01
G30C C31A G36A G44C | 0.11
G29U G40U C45U | 0.23

Variant | self-cleavage
G30A G33U U34C | 0.24
G30U C31A C45U | 0.14
G29C C31A U32A | 0.14
G29U G30C C46G | 0.07
G29U U32A U34A | 0.01
G30U C31U G33C | 0.02
G29U C31G G35C | 0.08
G29U G36U U38C G44C | 0.01
G30U G35U C45U | 0.15
G29U G36C A39G C46A | 0.06
G30C U38G U43C | 0
G29C G33A G40C | 0.06
G30C C31U C42A | 0.08
G30C U43G G44A | 0.24
G29U G33U U38G | 0.01
G30A C42U U43G | 1.69
G30C C37U C45U | 0.14
G30A G33U A41C | 0.03
G30U C31G G36A G40C U43A | 0.04
G30A G33C G36C | 0.03
G30U G35U C46U | 0.23
G30A C31U U32G | 0.07
C31A C37U U43C | 0.08
G30A C37G U43A | 0.01

Variant | self-cleavage
G29U G33C C46A | 0.02
G30A C31G U38A A39U | 0.08
G30U G33A C42U | 0.05
G30U C31G G36U | 0.05
G30A G33C C46U | 0.06
C31A G33A C46U | 0.07
G29U C31A G35U | 0.02
G30C C37A C42A | 0.22
C31A C42G G44A | 0.05
G29C A39U C42U G44A C46U | 0.01
G29U G30A C31A G40A | 0.04
G30C G33A G44C | 0.03
G30U U38C G40A | 0.19
G30C U38G A39U C45A | 0.16
G29U U34G C37U | 0
G30C C31U U34G | 0.03
G29U C42A C45U | 0.28
G30U G44U C46G | 0.03
G29C U34G G44U | 0.05
G30U A41G C46A | 0.21
G29C U34A U38G A39U | 0.17
G29C G36A A39G | 0.04
G30C A39C U43A | 0.4
G30A U32G G33A G36U G40A | 0.06

Variant | self-cleavage
G29C G30C C46A | 0.17
G30U U34A C46A | 0.01
G30U C31A A41U | 0.05
G29U G33U U34C C37U U43A | 0.03
G29C G35U A41U | 0.04
G29U U34G A39U | 0.16
G29C G30A A39C G40C | 0.04
G29U G33U U34C | 0.12
G30C U38A C42G | 0.08
G30A G36C C45U | 0.02
G30U U38C A41G C46U | 0.17
G29U G30A C31A C37A | 0.07
G30U U32G U34A G40U | 0.01
G30U G36U G44A | 0.06
G29U A41U G44A | 0.08
G30A U32A G35U | 0.02
G30A U32A G35A | 0.03
G30A C31A C42G | 0.04
G30A C31A C42A | 0.05
G29U C31U C37A | 0.06
G29C G33A C42A | 0.07
G29C G40U C42G | 0.03
G30U C42U U43C | 0.07
G30A G44A C45A | 0.05

Variant | self-cleavage
G30A U34A G36C | 0.02
G29U G36A U38A A39G G40A C42A | 0.02
G29U A41C C42A | 0.07
G30A C31A U38C A41U | 0.08
G29C G33U G36U A39G | 0.08
G29U C42U U43G | 0.03
G29U G36A G40U C46G | 0.03
G29U C37A G40C C46G | 0.05
G30C C31A G33U G40A | 0.02
G30C G40U G44C | 0.03
G30C C31A U32A U34C G36U U43C | 0.02
G29C G33A U34A U43A | 0.02
G30C A41C G44A | 0.04
G29U U38A C45A | 0.09
G30C C31A U38C | 0.07
G30A G33U G36C C37A C45G | 0
G30C C37G U38G A41C C46U | 0
G29C G30U C42U | 0.12
G30A U34G A39G | 0.09
G30U G36C U38C C46A | 0.04
G30A U32G A41C C45U | 0.02
G29U C31A U38A U43C | 0.03
G29C G30A C46A | 0.64
G29C G30A C46U | 0.92

Variant | self-cleavage
G30A A39C G40C | 0.06
G30A A39C G40A | 0.17
G29C A39U G40A | 0.02
G30A U32C G35A C37A | 0.04
G30C C37G A41U | 0.04
G30U C31A G44U C46G | 0.18
G29C U32C A39C | 0.17
G30U U32G U38A | 0.14
G30C C31G G36C | 0.06
G29U G33A U34G | 0.04
G29C U34A U43G C46U | 0.01
C31A A41C C45A C46A | 0.04
G29C U32A G35A | 0.05
C31A A39U A41G | 0.31
G30U U32A C37A | 0.04
G30A G36C G40C A41C | 0.14
G30U C31U U43A | 0.27
G29U C37G A41G | 0.03
G29U C37G A41C | 0.02
G29U G30C C31A G40U | 0.04
G29C A41C G44U C46U | 0.01
G29C G30A A39G | 0.02
G29U C42G G44U | 0.04
